# Test results taken from publication PMC4336329 (PLoS ONE, 2015).
# Hit rate of the full screen: of about 310,000 compounds, about 2,200 (0.71%) showed an effect of 50% or more. Effects have a minus sign here. The list shows a part of the results.
# Molecular target: human ether-à-go-go-related gene (hERG) potassium channel (human, UniProt Q12809)
# Assay: primary screen, population patch clamp on CHO cells stably expressing hERG
# Chain of human ether-à-go-go-related gene (hERG) potassium channel (Q12809 whole entry, looked up): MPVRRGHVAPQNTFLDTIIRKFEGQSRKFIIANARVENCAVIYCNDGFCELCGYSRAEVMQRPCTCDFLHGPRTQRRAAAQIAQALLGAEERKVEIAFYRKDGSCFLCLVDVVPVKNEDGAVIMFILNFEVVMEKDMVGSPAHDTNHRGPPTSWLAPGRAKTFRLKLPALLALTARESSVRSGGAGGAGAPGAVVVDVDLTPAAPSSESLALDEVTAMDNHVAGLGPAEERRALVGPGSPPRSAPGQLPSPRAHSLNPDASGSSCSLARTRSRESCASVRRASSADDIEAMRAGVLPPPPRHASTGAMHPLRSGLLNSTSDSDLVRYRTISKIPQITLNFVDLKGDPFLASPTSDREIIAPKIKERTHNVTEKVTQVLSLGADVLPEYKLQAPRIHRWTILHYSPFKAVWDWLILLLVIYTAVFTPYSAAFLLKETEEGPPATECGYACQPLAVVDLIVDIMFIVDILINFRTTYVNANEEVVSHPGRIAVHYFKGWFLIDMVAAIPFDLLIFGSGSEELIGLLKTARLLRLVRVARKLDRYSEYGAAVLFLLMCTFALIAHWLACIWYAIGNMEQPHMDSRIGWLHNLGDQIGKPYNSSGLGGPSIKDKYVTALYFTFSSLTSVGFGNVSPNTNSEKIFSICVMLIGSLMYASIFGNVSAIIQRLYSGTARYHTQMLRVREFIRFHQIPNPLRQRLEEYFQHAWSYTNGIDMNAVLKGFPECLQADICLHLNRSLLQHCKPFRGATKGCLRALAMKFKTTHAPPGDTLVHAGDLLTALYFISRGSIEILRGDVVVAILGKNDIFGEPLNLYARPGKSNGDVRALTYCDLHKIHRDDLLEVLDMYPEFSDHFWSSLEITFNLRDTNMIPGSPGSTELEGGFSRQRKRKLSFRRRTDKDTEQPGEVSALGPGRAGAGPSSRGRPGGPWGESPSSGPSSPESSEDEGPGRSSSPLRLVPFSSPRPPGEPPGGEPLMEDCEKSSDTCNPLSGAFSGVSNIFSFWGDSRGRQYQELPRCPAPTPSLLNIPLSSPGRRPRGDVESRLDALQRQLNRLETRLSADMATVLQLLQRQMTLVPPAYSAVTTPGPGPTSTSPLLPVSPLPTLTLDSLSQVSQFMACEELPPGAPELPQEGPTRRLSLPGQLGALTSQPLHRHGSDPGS
row,SMILES,"hERG current change (%, negative = inhibition) at 1uM"
1,CCCC[N+]12CCC(CC1)C(C(O)(c1ccccc1)c1ccccc1)C2.[Br-] (centres unmarked),8.29%
2,CCOC(=O)c1ccccc1NC(=O)CN1C(=O)c2ccccc2S1(=O)=O,0.76%
3,COc1ccc(C(=O)N/N=C(\C)Cn2nc([N+](=O)[O-])cc2C)cc1,-6.71%
4,COc1cc(CNCCc2ccc(S(N)(=O)=O)cc2)ccc1OCc1ccc(Cl)cc1.Cl,-1.77%
5,COC(=O)c1c(NC(C)=O)sc2c1CCCCC2,12.7%
6,C=CCNc1nc(C2(C)CC3(CC(C)(C)OC3=O)C(=O)O2)cs1 (centres unmarked),6.75%
7,O=C(NC(=S)N1CCCC1)c1ccccc1,17.5%
8,COC(=O)c1c(-c2ccccc2)noc1C,10.9%
9,Nc1nc(CN2CCN(Cc3ccccc3)CC2)nc(N2CCCc3ccccc32)n1,-28.2%
10,O=C(COC(=O)c1ccccc1[N+](=O)[O-])NCCCc1ccccc1,5.5%
11,CCCOc1ccccc1C1CC(=O)NC2=C1C(=O)CCC2 (centres unmarked),11.7%
12,COc1ccc(-c2nnc(-c3cc4c(ccc5ccccc54)oc3=O)o2)cc1,3.15%
13,Cl.c1ccc(Nc2nc(N3CCOCC3)c3ccccc3n2)cc1,3.46%
14,CCN1CCN(C(=O)c2cc(S(=O)(=O)N3CCCCC3)ccc2Cl)CC1,5.86%
15,O=C(CNS(=O)(=O)c1ccc(Br)cc1)NCc1cccnc1,10.1%
16,O=C(NCCN1CCOCC1)c1cccc(S(=O)(=O)NCc2ccccc2)c1,-3.78%
17,O=C(Nc1nc2ccccc2n1CCN1CCCCC1)C1CCCCC1,-29.6%
18,COc1cc2c(cc1OC)C(C(=O)Nc1ccc3c(c1)OCCO3)C1c3ccccc3CCN1C2=O (centres unmarked),0.454%
19,COc1ccccc1OCC(O)Cn1c(=N)n(CCN2CCCCC2)c2ccccc21.Cl (centres unmarked),-27.9%
20,OC(Cn1c2ccccc2c2ccccc21)C[n+]1cccc2ccccc21.[O-][Cl+3]([O-])([O-])[O-] (centres unmarked),1.17%
21,CSCCC(C(=O)OCC(=O)c1ccc(C)c(C)c1)N1C(=O)c2cc(Cl)c(Cl)cc2C1=O (centres unmarked),3.6%
22,COc1ccc(C(=O)Nc2cccc(C)c2)cc1S(=O)(=O)N1CCOCC1,9.11%

row,SMILES,"hERG current change (%, negative = inhibition) at 1uM"
1,COc1cccc(C2CC(C(F)(F)F)n3nc(C(=O)NCc4cccnc4)cc3N2)c1 (centres unmarked),11.8%
2,COc1ccc(OC)c(NC(=O)c2cnn(-c3ccccc3)c2C)c1,7.05%
3,Cn1nc(C(=O)Nc2ccc3c(c2)OCO3)c2ccccc2c1=O,6.82%
4,Cc1ccc(C2=Nc3ccccc3N=C(c3ccco3)C2)c(O)c1,9.98%
5,Nc1cccnc1S(=O)(=O)c1ccccc1,8.89%
6,COc1ccc(CCNC(=O)c2c(C)nc3ccccn23)cc1OC,-9.75%
7,COc1ccc(NS(=O)(=O)c2cc3c(cc2C)N(C)CCO3)c(OC)c1,15.5%
8,Cc1nn(C)c(C)c1NC(=O)CSc1nc(-c2ccccc2Cl)nc2c1cnn2-c1ccccc1,1.59%
9,O=C(CCC(=O)N1C[C@H]2C[C@@H](C1)c1cccc(=O)n1C2)NCc1ccc(F)cc1,8.93%
10,CCOC(=O)N1CCN(C(=O)CN(Cc2ccccc2)S(C)(=O)=O)CC1,10%
11,Cc1ccc(C2C(N)C(=O)N2c2ccc(C)cc2)cc1 (centres unmarked),4.62%
12,COc1ccccc1NC(=O)Cn1cnc2c(cnn2-c2ccc(C)c(C)c2)c1=O,9.45%
13,Cc1ccccc1SCCNC(=O)c1ccccc1Br,4.03%
14,CNc1nc(Cl)c(SC)c(NCc2ccc(F)cc2)n1,12.1%
15,OC1COC(O)C(O)C1O (centres unmarked),6.14%
16,Cc1cccc(N2CCN(C(=S)Nc3ccc4nc(N5CCOCC5)cc(C)c4c3)CC2C)c1 (centres unmarked),9.28%
17,CCc1nc(Sc2nnnn2-c2ccccc2)c2c3c(sc2n1)CCCC3,5.25%
18,Cc1cc(C)nc(N2CCCC(C(=O)NCc3ccccc3)C2)n1 (centres unmarked),10.6%
19,CCc1ccc[n+](-c2[nH]c(=O)sc2/C=N/N=C(\[O-])CCn2c3ccccc3c3ccccc32)c1,12.9%
20,C=CCn1c(COc2cccc(C)c2)nnc1SCC(=O)NC(=O)NCc1ccco1,14.1%
21,O=C(O)C1CCCCC1C(=O)Nc1ccccc1Cl (centres unmarked),4.86%
22,CC1CCCC(NC(=O)CN2C(=O)c3cccnc3Oc3ccc(Cl)cc32)C1C (centres unmarked),6.45%
